From PubChem BioAssay (NCI) come the findings set out here.

The structures appear in SMILES notation.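 Tested at 5 concentrations; 48 h exposure; 96-well plates; endpoints linearly interpolated, else capped at highest concentration. GI50: concentration for 50% inhibition of growth. TGI: total growth inhibition.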

The test system of this test is NCI-H322M lung. In words: NCI tumour cell line growth inhibition, 48 h.
`CC(=O)OCC1OC(n2c3c(c(-c4ccc(Cl)cc4)c(C#N)c2=S)C(=O)CC(C)(C)C3)C(OC(C)=O)C(OC(C)=O)C1OC(C)=O` (configuration not stated) displayed a TGI greater than 95.1 µM. Take `CCCC[P+](c1ccccc1)(c1ccccc1)c1ccccc1`: the GI50 is 14 µM and the TGI was greater than 100 µM. `O=C1/C(=C/c2ccc(Cl)cc2)NC(=S)N1CN1CCOCC1`: the TGI is greater than 100 µM.

`N=C(N)c1ccc(-c2ccc(-c3ccc(Cl)cn3)s2)cc1`: the GI50 was 1.66 µM and the TGI was determined as 3.07 µM. The molecule `C=C(C)[C@@H]1CC[C@@H](C)[C@](O)([C@@H]2C[C@@H]([C@H](COC(=O)c3ccccc3)OC(=O)c3ccccc3)OC2=O)C1` had a TGI greater than 100 µM. `c1ccc([C@@H]2N[C@@]3(CO[Si](c4ccccc4)(c4ccccc4)c4ccccc4)CC[C@H]4CN[C@@H]2[C@H]43)cc1` registered a TGI of 22.9 µM. As to `COc1cc(-c2nn(C(=O)NS(=O)(=O)c3ccc(C)cc3)cc2-c2ccncc2)ccc1Cl`, the GI50 is 17.3 µM and the TGI was found to be 95.1 µM. As to `CCCCCC(=O)OCC(=O)[C@H]1[C@H](C)C[C@H]2[C@@H]3C[C@H](F)C4=C/C(=N/OC(=O)c5cccc6c(=O)c7ccccc7[nH]c56)C=C[C@]4(C)[C@H]3[C@@H](O)C[C@@]21C`, the TGI is greater than 100 µM.

For `O=c1oc2ccccc2cc1-c1nnc(-c2ccccc2)s1`, the TGI was greater than 100 µM. On the same count and under the same terms, the result for `CC(C)C[C@H](NC(=O)CCc1ccccc1)B(O)O` reads greater than 100 µM; that for `NCS(=O)(=O)O`, greater than 100 µM. The same measure, in the same setting: the result for `OCC(O)COc1c(Cl)ccc(Cl)c1Cl` (configuration not stated) reads greater than 100 µM; that for `O=C(O)c1ccccn1`, greater than 100 µM. Turning to `O=C(Nc1cccc(C(F)(F)F)c1)c1cccc(NC2=C(Cl)C(=O)N(Cc3ccccc3)C2=O)c1`, the GI50 was greater than 100 µM and the TGI was greater than 100 µM. As for `COc1cc(-c2nc(SCC(=O)Nc3ccc(C(C)=O)cc3)[nH]c(=O)c2C#N)cc(OC)c1OC`, the GI50 is 30.3 µM and the TGI was greater than 100 µM. Turning to `Cc1cc(S(=O)(=O)Nc2nc(N)nc(N3CCOCC3)n2)c(SCC(=O)O)cc1Cl`, the TGI is greater than 10 µM.

As to `C[C@@]1(c2ncncc2F)NC(=O)c2cc(-c3cn[nH]c3)ccc21`, the GI50 was 17.4 µM and the TGI is greater than 100 µM. As for `CCN(Cc1nc2cc(C(F)(F)F)ccc2nc1-c1ccccc1)c1ccc(OC)c(OC)c1`, the GI50 was 31 µM and the TGI is greater than 100 µM. Take `COc1ccc(Nc2nc(N)c(C(=O)c3ccc(OC)cc3)s2)cc1`: the TGI was greater than 59.2 µM. Regarding `COc1ccc(NC(=O)c2sc3nc(C)c(C(O)c4ccc(OC)cc4)cc3c2N)cc1` (configuration not stated), the GI50 was 0.34 µM and the TGI was greater than 50 µM.

On to `Cc1ccc2[nH]c(C(=O)NN3C(=O)CSC34CCCC(C)C4)c(-c3ccccc3)c2c1` (configuration not stated), for which the GI50 is 18 µM and the TGI stood at 37.7 µM. `C[C@H]1COC2(c3ccccc3)CCC(=O)N12` (some centres not stated) gave a TGI greater than 100 µM. The same measure, in the same setting: the result for `O=c1n(-c2ccccc2)c(=O)n2n1C1CCC2CC1` reads greater than 100 µM; that for `CO[C@@](c1ccccc1)(c1nc(C#N)c(N)o1)C(F)(F)F`, greater than 100 µM. As for `C#CCOc1ccc2ncnc(Nc3ccc(NC(=O)CCl)cc3)c2c1`, the GI50 was 14.1 µM and the TGI amounted to 27.4 µM. The corresponding values for `COc1cccc(Cn2cc3c(c2)-c2oncc2CC3)c1` are 0.432 µM and greater than 26.1 µM. `CC(=O)c1c(O)ccc2c1CC(CC=O)O2` (configuration not stated) yielded a TGI greater than 100 µM. The same measure, in the same setting: the result for `CCCCSC1=N/C(=C\c2ccco2)C(=O)N1` reads greater than 100 µM. Still for that read-out and setting: the result for `C#CCCOC1(OC)N=NC(C)(C)O1` (configuration not stated) reads greater than 100 µM; that for `COc1ccc(CNc2nc(NCc3ccc(OC)cc3)nc(NC(C)C)n2)cc1`, 53.5 µM; that for `CC12CCc3ccccc3C1=Nc1ccccc12` (configuration not stated), greater than 100 µM.

The molecule `CCOC(=O)c1nc2ccc(Cl)cc2c2c1CCO2` registered a TGI greater than 100 µM. As to `CCc1ccc(/C(C)=N/NC(N)=S)cc1`, the TGI was greater than 100 µM. Consider `O=C(O)c1ccc(-c2ccc(C(=O)O)cc2I)c(I)c1`, for which the GI50 was greater than 100 µM and the TGI is greater than 100 µM. For `C=C1CC2(OC1=O)c1ccccc1C=Cc1ccccc12`, the TGI is 30.1 µM. Same read-out and setting: the result for `C=C1C(=O)O[C@H]2[C@H]1[C@H](OC(=O)/C(C)=C\C)C[C@]1(CO1)[C@@H]1[C@H](OC(C)=O)C=C(C)[C@]21O` reads greater than 100 µM; that for `CN(C)CCCSc1c2ccccc2nc2cc(NCC(=O)Nc3ccccc3-c3ccccc3NC(=O)CNc3ccc4c(SCCCN(C)C)c5ccccc5nc4c3)ccc12`, greater than 100 µM. As to `O=C(CC1(O)C(=O)Nc2ccc(Br)cc21)c1ccc(C(=O)NCC2CCC3(CC2)OOC2(CCCCC2)OO3)cc1` (configuration not stated), the GI50 was 13.8 µM and the TGI worked out at 33.8 µM. The molecule `CS(=O)(=O)OCCN(CCOS(C)(=O)=O)c1ccc(C=Nc2ccc3oc(=O)ccc3c2)cc1` registered a TGI of 52.5 µM. Molecule `Cc1nccc2c1cnc1ccnn12` showed a TGI greater than 100 µM. The same measure, in the same setting: the result for `CN(C)CCNC(=O)c1cccc2nc3c4ccccc4c4ccccc4c3nc12` reads 3.08 µM. Turning to `CCOC(=O)c1c(C)n(CC(C)C)c2c1cc1oc(=O)c(=O)n3cnc2c13`, the GI50 was 13.7 µM and the TGI was greater than 50 µM. The molecule `OCCSCc1cc2c(O)c(c1)Cc1cc(CSCCO)cc(c1O)Cc1cc(CSCCO)cc(c1O)Cc1cc(CSCCO)cc(c1O)C2` showed a TGI of 23 µM. On to `COc1cc(C2CC(c3ccc4c(c3)OCO4)=NN2C(C)=O)cc(OC)c1OC` (configuration not stated), for which the GI50 was 3.01 µM and the TGI was greater than 100 µM.

`CC1(C)[C@@H]2C[C@H]1C(Cc1ccc(C[C@H]3c4cc(-c5ccccn5)ncc4[C@H]4C[C@@H]3C4(C)C)cc1)c1cc(-c3ccccn3)ncc12` (some centres not stated) had a TGI greater than 100 µM. Regarding `CN1CC2=C(NC(=S)NC2c2ccc(Cl)cc2)/C(=C/c2ccc(Cl)cc2)C1` (configuration not stated), the TGI was 35.9 µM. Consider `CCOC(=O)c1cc2cc(NC(=O)c3cc4cc([N+](=O)[O-])ccc4n3C)ccc2n1C`, for which the GI50 is 30.8 µM and the TGI was greater than 100 µM. Molecule `CC(C)CC(CNC(Cc1ccc(Cl)cc1)C(N)=O)NC(=O)C(Cc1cnc[nH]1)NC(=O)CNC(=O)C(NC(=O)C(C)NC(=O)C(Cc1c[nH]c2ccccc12)NC(=O)C(CCC(=O)O)NC(=O)C(N)Cc1ccccc1)C(C)C` (configuration not stated) gave a TGI greater than 133 µM. `CS(=O)c1ccc(-c2nc(-c3ccc(F)cc3)c(-c3ccncc3)[nH]2)cc1` (configuration not stated): the GI50 is 29.6 µM and the TGI is greater than 100 µM. The matching figures for `COc1cc(/C=C2\CC3C4CC=C5C[C@@H](N6CCCC6)CC[C@]5(C)C4CC[C@]3(C)[C@H]2OC(C)=O)ccc1OCCN1CCCCC1` (some centres not stated): 0.468 µM and 1.95 µM. As to `CN(C)c1nc(N(C)C)n2nc(-c3ccccc3[N+](=O)[O-])nc2n1`, the TGI is greater than 100 µM. For `O=C1/C(=C/c2ccc([N+](=O)[O-])s2)Oc2ccccc21`, the GI50 was 2.58 µM and the TGI amounted to 7.58 µM. Turning to `Cc1cc(=O)[nH]c(NN2C(Cl)C(=O)C2c2cccc([N+](=O)[O-])c2)n1` (configuration not stated), the TGI was greater than 100 µM. Still for that read-out and setting: the result for `CC1(C)C=C(/C=N/Nc2ccc(Br)cc2)C(C#N)=C(O)C1(C#N)C#N` reads greater than 100 µM; that for `Cc1cccc2c1Oc1cc(Cl)ccc1C2NC(=O)CN(C)C` (configuration not stated), greater than 100 µM; that for `Cc1cnc2[nH]c(-c3ccc(F)cc3)cc(=O)c2c1`, greater than 87.2 µM.

As to `O=c1oc2cc(O)ccc2c(O)c1C(c1ccccn1)c1c(O)c2ccc(O)cc2oc1=O`, the TGI was greater than 100 µM. Molecule `CCOC(=O)C1=C(NC(C)(C)C)OCC1=O` yielded a TGI greater than 100 µM.
